Source: the supplement of paper PMC10037445
Where “and” joins values, the source holds several entries; their conditions need not be identical. Equal values may be shown once. ± gives the standard deviation of the averaged measurements. Whole data set: some 2,900 compounds, median “IRF Lucia reporter activity, fold change vs agonist alone” near 0.9, cut for the highest 2% near 2.8. The list shows a part of the results.

Key:
RAW-Dual [1] = test: IRF Lucia reporter activity, fold change vs agonist alone; higher = enhanced IRF activity; conditions: agonist: MPLA (TLR4) […]
How it was run: (§1)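 After 50 nL of library stock was delivered by pin tool to RAW-Dual macrophages (50,000 cells/well, DMEM, 384-well plates), a PRR agonist was added 1 h later and the plates were kept at 37 °C, 5% CO2. Twenty hours later, IRF was read from supernatant by QuantiLuc luminescence and NF-κB by QuantiBlue absorbance at 620 nm. Reporter activity is stated as fold change over agonist-alone wells. Wells with IncuCyte confluency under 70% of agonist controls in both mask sets were counted as cytotoxic.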

RAW-Dual [2] = test: IRF Lucia reporter activity, fold change vs agonist alone; cytotoxicity flag (confluency mask): not cytotoxic; higher = enhanced IRF activity
How it was run: as §1

RAW-Dual [3] = test: IRF Lucia reporter activity, fold change vs agonist alone; cytotoxicity flag (confluency mask): cytotoxic (confluency <70% of control); higher = enhanced IRF activity
How it was run: as §1

[4] = library stock concentration (final ~1000-fold dilution): 10 mM, cytotoxicity flag (confluency mask): not cytotoxic
[5] = agonist: 3'3'-cGAMP (STING) 10 ug/mL
[6] = library stock concentration (final ~1000-fold dilution): 10 mM, cytotoxicity flag (confluency mask): cytotoxic (confluency <70% of control)

O=C(O)CC(=O)C(=O)O
IRF Lucia reporter activity (RAW-Dual [1]; [4]): 1.06

O=C(O)CC(=O)C(=O)O (library stock concentration (final ~1000-fold dilution): 10 mM)
IRF Lucia reporter activity (RAW-Dual [2]; [5]): 0.987 | IRF Lucia reporter activity (RAW-Dual [2]; agonist: LPS (TLR4) 0.1 ug/mL): 0.694

Nc1ccccc1NC(=O)c1cnccn1 (library stock concentration (final ~1000-fold dilution): 10 mM)
IRF Lucia reporter activity (RAW-Dual [2]; [5]): 0.602 | IRF Lucia reporter activity (RAW-Dual [2]; agonist: LPS (TLR4) 0.1 ug/mL): 0.436

C=C1CCN(C(C)C(O)(Cn2cncn2)c2ccc(F)cc2F)CC1 (stereo unspecified)
IRF Lucia reporter activity (RAW-Dual [1]; [6]): 2.14

C=C1CCN(C(C)C(O)(Cn2cncn2)c2ccc(F)cc2F)CC1 (stereo unspecified) (library stock concentration (final ~1000-fold dilution): 10 mM)
IRF Lucia reporter activity (RAW-Dual [3]; [5]): 1.25 | IRF Lucia reporter activity (RAW-Dual [3]; agonist: LPS (TLR4) 0.1 ug/mL): 2.38

Cc1ccc2nc(NCCN)c3ncc(C)n3c2c1 (library stock concentration (final ~1000-fold dilution): 10 mM)
IRF Lucia reporter activity (RAW-Dual [2]; [5]): 2.21 | IRF Lucia reporter activity (RAW-Dual [2]; agonist: LPS (TLR4) 0.1 ug/mL): 3.5 | IRF Lucia reporter activity (RAW-Dual [3]; agonist: LPS (TLR4) 0.1 ug/mL): 0.0229 and 0.0291

C=C1CCC2C(C)(COC(=O)CCC(=O)O)C(OC(=O)CCC(=O)O)CCC2(C)C1/C=C/C1=CCOC1=O (stereo unspecified) (library stock concentration (final ~1000-fold dilution): 10 mM)
IRF Lucia reporter activity (RAW-Dual [2]; [5]): 0.871 | IRF Lucia reporter activity (RAW-Dual [2]; agonist: LPS (TLR4) 0.1 ug/mL): 1.01

CC(=O)c1cc([N+](=O)[O-])c(Sc2ccc(F)cc2F)s1
IRF Lucia reporter activity (RAW-Dual [1]; [6]): 0.031

CC(=O)c1cc([N+](=O)[O-])c(Sc2ccc(F)cc2F)s1 (library stock concentration (final ~1000-fold dilution): 10 mM)
IRF Lucia reporter activity (RAW-Dual [3]; [5]): 0.0205 | IRF Lucia reporter activity (RAW-Dual [3]; agonist: LPS (TLR4) 0.1 ug/mL): 0.0256

C=CCc1ccc(O)c(-c2cc(CC=C)ccc2O)c1
IRF Lucia reporter activity (RAW-Dual [1]; [4]): 0.958 ± 0.1

C=CCc1ccc(O)c(-c2cc(CC=C)ccc2O)c1 (library stock concentration (final ~1000-fold dilution): 10 mM)
IRF Lucia reporter activity (RAW-Dual [2]; [5]): 0.968 ± 0.044 | IRF Lucia reporter activity (RAW-Dual [2]; agonist: LPS (TLR4) 0.1 ug/mL): 0.851 ± 0.029

CC(c1ccc2nccn2c1)n1nnc2ncc(-c3cnn(C)c3)nc21 (stereo unspecified) (library stock concentration (final ~1000-fold dilution): 10 mM)
IRF Lucia reporter activity (RAW-Dual [2]; [5]): 0.953 | IRF Lucia reporter activity (RAW-Dual [2]; agonist: LPS (TLR4) 0.1 ug/mL): 1.15

COc1cc(O)cc(O)c1C(=O)C=Cc1ccccc1
IRF Lucia reporter activity (RAW-Dual [1]; [6]): 0.383

COc1cc(O)cc(O)c1C(=O)C=Cc1ccccc1 (library stock concentration (final ~1000-fold dilution): 10 mM)
IRF Lucia reporter activity (RAW-Dual [3]; [5]): 0.0702 | IRF Lucia reporter activity (RAW-Dual [3]; agonist: LPS (TLR4) 0.1 ug/mL): 0.468

Cc1onc(-c2c(Cl)cccc2Cl)c1C(=O)NC1C(=O)N2C1SC(C)(C)C2C(=O)O (stereo unspecified) (library stock concentration (final ~1000-fold dilution): 10 mM)
IRF Lucia reporter activity (RAW-Dual [2]; [5]): 1.07 | IRF Lucia reporter activity (RAW-Dual [2]; agonist: LPS (TLR4) 0.1 ug/mL): 0.827

Cc1onc(-c2c(Cl)cccc2Cl)c1C(=O)NC1C(=O)N2C1SC(C)(C)C2C(=O)O (stereo unspecified)
IRF Lucia reporter activity (RAW-Dual [1]; [4]): 0.977

CCNC1CC(C)S(=O)(=O)c2sc(S(N)(=O)=O)cc21.Cl (stereo unspecified) (library stock concentration (final ~1000-fold dilution): 10 mM water)
IRF Lucia reporter activity (RAW-Dual [2]; [5]): 0.944 | IRF Lucia reporter activity (RAW-Dual [2]; agonist: LPS (TLR4) 0.1 ug/mL): 0.763

CCNC1CC(C)S(=O)(=O)c2sc(S(N)(=O)=O)cc21.Cl (stereo unspecified)
IRF Lucia reporter activity (RAW-Dual [1]; library stock concentration (final ~1000-fold dilution): 10 mM water, cytotoxicity flag (confluency mask): not cytotoxic): 1.33

O=c1cc(-c2ccc(O)cc2)oc2cc(O[C@@H]3O[C@H](CO)[C@@H](O)[C@H](O)[C@H]3O)cc(O)c12 (library stock concentration (final ~1000-fold dilution): 10 mM)
IRF Lucia reporter activity (RAW-Dual [2]; [5]): 1.07 | IRF Lucia reporter activity (RAW-Dual [2]; agonist: LPS (TLR4) 0.1 ug/mL): 0.935

CNCc1ccc(-c2[nH]c3cc(F)cc4c3c2CCNC4=O)cc1 (library stock concentration (final ~1000-fold dilution): 10 mM)
IRF Lucia reporter activity (RAW-Dual [2]; [5]): 0.411 | IRF Lucia reporter activity (RAW-Dual [2]; agonist: LPS (TLR4) 0.1 ug/mL): 0.244

CNCc1ccc(-c2[nH]c3cc(F)cc4c3c2CCNC4=O)cc1
IRF Lucia reporter activity (RAW-Dual [1]; [4]): 0.291

CCNC(=O)c1noc(-c2cc(C(C)C)c(O)cc2O)c1-c1ccc(CN2CCOCC2)cc1
IRF Lucia reporter activity (RAW-Dual [1]; [6]): 1.42

CCNC(=O)c1noc(-c2cc(C(C)C)c(O)cc2O)c1-c1ccc(CN2CCOCC2)cc1 (library stock concentration (final ~1000-fold dilution): 10 mM)
IRF Lucia reporter activity (RAW-Dual [3]; [5]): 0.601 | IRF Lucia reporter activity (RAW-Dual [3]; agonist: LPS (TLR4) 0.1 ug/mL): 1.04

O=c1ncccn1C1OC(CO)C(O)C1O (stereo unspecified)
IRF Lucia reporter activity (RAW-Dual [1]; [4]): 1.09

O=c1ncccn1C1OC(CO)C(O)C1O (stereo unspecified) (library stock concentration (final ~1000-fold dilution): 10 mM)
IRF Lucia reporter activity (RAW-Dual [2]; [5]): 1.04 | IRF Lucia reporter activity (RAW-Dual [2]; agonist: LPS (TLR4) 0.1 ug/mL): 1.06

O=C(O)c1cc2cccc([N+](=O)[O-])c2[nH]1
IRF Lucia reporter activity (RAW-Dual [1]; [4]): 0.977

O=C(O)c1cc2cccc([N+](=O)[O-])c2[nH]1 (library stock concentration (final ~1000-fold dilution): 10 mM)
IRF Lucia reporter activity (RAW-Dual [2]; [5]): 1.06 | IRF Lucia reporter activity (RAW-Dual [2]; agonist: LPS (TLR4) 0.1 ug/mL): 1.05

CC1CN(CC(Cc2ccccc2)C(=O)NCC(=O)O)CCC1(C)c1cccc(O)c1.O.O (stereo unspecified) (library stock concentration (final ~1000-fold dilution): 10 mM)
IRF Lucia reporter activity (RAW-Dual [2]; [5]): 1.04 | IRF Lucia reporter activity (RAW-Dual [2]; agonist: LPS (TLR4) 0.1 ug/mL): 1.05

CC1CN(CC(Cc2ccccc2)C(=O)NCC(=O)O)CCC1(C)c1cccc(O)c1.O.O (stereo unspecified)
IRF Lucia reporter activity (RAW-Dual [1]; [4]): 1.04

Cc1ccccc1C(OCCN(C)C)c1ccccc1.Cl (stereo unspecified)
IRF Lucia reporter activity (RAW-Dual [1]; [4]): 0.916

Cc1ccccc1C(OCCN(C)C)c1ccccc1.Cl (stereo unspecified) (library stock concentration (final ~1000-fold dilution): 10 mM)
IRF Lucia reporter activity (RAW-Dual [2]; [5]): 0.487 | IRF Lucia reporter activity (RAW-Dual [2]; agonist: LPS (TLR4) 0.1 ug/mL): 0.798

CCCCCCCCCCCCCCCC(=O)OCC(O)C1OC(O)=C(O)C1=O (stereo unspecified) (library stock concentration (final ~1000-fold dilution): 10 mM)
IRF Lucia reporter activity (RAW-Dual [2]; [5]): 0.22 | IRF Lucia reporter activity (RAW-Dual [2]; agonist: LPS (TLR4) 0.1 ug/mL): 0.449

COc1cc(C(=O)NC2CCN(C)CC2)ccc1Nc1ncc2c(n1)N(C1CCCC1)CC(F)(F)C(=O)N2C
IRF Lucia reporter activity (RAW-Dual [1]; [6]): 0.17

COc1cc(C(=O)NC2CCN(C)CC2)ccc1Nc1ncc2c(n1)N(C1CCCC1)CC(F)(F)C(=O)N2C (library stock concentration (final ~1000-fold dilution): 10 mM)
IRF Lucia reporter activity (RAW-Dual [3]; [5]): 0.134 | IRF Lucia reporter activity (RAW-Dual [3]; agonist: LPS (TLR4) 0.1 ug/mL): 0.178

O=C(NCc1cccc(O)c1)Nc1nc(-c2ccncc2)cs1
IRF Lucia reporter activity (RAW-Dual [1]; [4]): 0.108

O=C(NCc1cccc(O)c1)Nc1nc(-c2ccncc2)cs1 (library stock concentration (final ~1000-fold dilution): 10 mM)
IRF Lucia reporter activity (RAW-Dual [2]; [5]): 0.113 | IRF Lucia reporter activity (RAW-Dual [2]; agonist: LPS (TLR4) 0.1 ug/mL): 0.231

COC(=O)CCc1ccc(OCC(O)CNC(C)C)cc1 (stereo unspecified) (library stock concentration (final ~1000-fold dilution): 10 mM)
IRF Lucia reporter activity (RAW-Dual [2]; [5]): 0.884 | IRF Lucia reporter activity (RAW-Dual [2]; agonist: LPS (TLR4) 0.1 ug/mL): 0.262

COC(=O)CCc1ccc(OCC(O)CNC(C)C)cc1 (stereo unspecified)
IRF Lucia reporter activity (RAW-Dual [1]; [4]): 1
